According to publication PMC4336329 (PLoS ONE, 2015):
The campaign covered roughly 310,000 compounds. About 14,000 (4.5%) showed an effect of 50% or more. The effect is printed as a negative number. This is one part of the list.

molecular target: human ether-à-go-go-related gene (hERG) potassium channel (human, UniProt Q12809); assay: primary screen, population patch clamp on CHO cells stably expressing hERG
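Further: peak tail current of the secondary pulse compared with the same well before compound.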

Chain of human ether-à-go-go-related gene (hERG) potassium channel (Q12809 whole entry, looked up): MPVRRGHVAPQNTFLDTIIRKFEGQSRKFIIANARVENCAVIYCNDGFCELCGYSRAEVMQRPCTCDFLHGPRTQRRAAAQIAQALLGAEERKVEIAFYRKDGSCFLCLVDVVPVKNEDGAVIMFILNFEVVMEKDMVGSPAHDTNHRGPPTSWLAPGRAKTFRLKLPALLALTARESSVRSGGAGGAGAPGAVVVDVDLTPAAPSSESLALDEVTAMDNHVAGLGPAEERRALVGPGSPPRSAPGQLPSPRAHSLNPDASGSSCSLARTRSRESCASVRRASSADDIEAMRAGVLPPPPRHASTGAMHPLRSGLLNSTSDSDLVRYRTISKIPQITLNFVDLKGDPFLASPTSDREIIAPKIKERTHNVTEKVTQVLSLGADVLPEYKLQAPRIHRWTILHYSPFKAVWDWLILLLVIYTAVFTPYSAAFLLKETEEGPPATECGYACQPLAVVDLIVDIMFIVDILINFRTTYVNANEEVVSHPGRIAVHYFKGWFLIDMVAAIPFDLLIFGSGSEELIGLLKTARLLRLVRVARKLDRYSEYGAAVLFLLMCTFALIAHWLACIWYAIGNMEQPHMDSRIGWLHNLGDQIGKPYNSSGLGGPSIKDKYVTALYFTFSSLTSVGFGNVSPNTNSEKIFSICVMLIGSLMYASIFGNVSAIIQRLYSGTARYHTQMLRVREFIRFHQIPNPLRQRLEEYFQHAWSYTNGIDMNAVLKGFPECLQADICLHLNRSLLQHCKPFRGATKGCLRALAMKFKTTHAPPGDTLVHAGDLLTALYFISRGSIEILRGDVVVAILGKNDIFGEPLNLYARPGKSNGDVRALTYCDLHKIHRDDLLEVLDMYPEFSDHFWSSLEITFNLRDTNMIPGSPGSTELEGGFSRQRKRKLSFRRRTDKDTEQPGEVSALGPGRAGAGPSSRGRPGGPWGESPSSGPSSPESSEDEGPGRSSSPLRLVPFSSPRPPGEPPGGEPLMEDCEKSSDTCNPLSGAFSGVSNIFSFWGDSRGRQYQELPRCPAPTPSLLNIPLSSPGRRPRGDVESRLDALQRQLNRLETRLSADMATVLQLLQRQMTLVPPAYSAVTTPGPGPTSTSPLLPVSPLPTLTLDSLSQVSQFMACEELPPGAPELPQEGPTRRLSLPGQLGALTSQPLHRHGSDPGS

| SMILES | hERG current change (%, negative = inhibition) at 10uM [%] |
| --- | --- |
| CC(C)COC(=O)n1ccc(C(=O)N2CCCCC2)n1 | -1.97 |
| COc1ccc(Cc2nc3ccc(C(=O)NCc4ncc(C)[nH]4)cc3o2)cc1OC | -2 |
| COc1cc(-n2c(C)nc3cc(C(=O)O)ccc32)cc(OC)c1OC | 27.1 |
| CCCS(=O)(=O)N1CCC(C(=O)N2CCCC2)CC1 | 10.1 |
| COC(=O)c1ccc(Cn2cnc3c(cnn3-c3ccc(C)c(C)c3)c2=O)o1 | -3.62 |
| COc1ccc(OC)c(CCNC(=O)CCCC(=O)n2ncc3cc(C)ccc32)c1 | -10 |
| O=C(Nc1ccc2c(c1)OCCO2)C1CCN(C(=O)c2ccccc2)CC1 | 5.84 |
| Cc1c(Cl)cccc1NC(=S)N1CCN(c2ncccn2)CC1 | 20.2 |
| CCOc1cccc(/C=N/NC(=O)c2cc(-c3cccn3C)n[nH]2)c1O | -9.59 |
| CC(C)(C)n1cnc2cc(NC(=O)c3ccco3)ccc21 | -2.57 |
| O=C(Cc1c(F)cccc1Cl)Nc1ccc(S(=O)(=O)N2CCOCC2)cc1 | -6.1 |
| O=C(CCCc1cccs1)Nc1ccc2c(c1)OCO2 | 1.78 |
| Cn1cc(Br)c(C(=O)NN2C(=O)C3C4C=CC(C5CC45)C3C2=O)n1 (centres unmarked) | 37 |
| CN(C)S(=O)(=O)c1ccc(NC(=S)NC(=O)c2cccs2)cc1 | 8.97 |
| O=[N+]([O-])c1cccc(/C=N/n2cnnc2)c1O | 2.93 |
| O=C(O)/C=C\C(=O)O.c1ccc2c(c1)CC1CNCc3cccc(c31)S2 (centres unmarked) | -49.5 |
| CC(C)(C)NS(=O)(=O)c1ccc(NC(=O)CS(=O)(=O)Cc2ccccc2)cc1 | 10.5 |
| CCNc1nc(Oc2c(Cl)cccc2Cl)cc(C(F)(F)F)n1 | 2.33 |
| O=C(O)CC(C(=O)NC1CCCCC1)C1CCCO1 (centres unmarked) | -2.25 |

| SMILES | hERG current change (%, negative = inhibition) at 10uM [%] |
| --- | --- |
| CC1CCN(c2ccc(N3C(=O)C4CCCCC4C3=O)cc2[N+](=O)[O-])CC1 (centres unmarked) | 24.5 |
| CC(=O)c1ccc(N2CCN(C(=O)c3cc(-c4ccncc4)nc4ccc(Cl)cc34)CC2)cc1 | -33 |
| CCOC(=O)C1=C(CC)Nc2ccccc2N=C1NC(=O)c1cc(C)on1 | -15.5 |
| Cc1c(C)c2c(OCC(=O)Nc3ccc(CCO)cc3)cc3c(c2oc1=O)CCC(C)(C)O3 | -2.15 |
| COc1cccc(C(=O)OCCCOC(=O)c2cccc(OC)c2OC)c1OC | -1.34 |
| Cc1cnc(C(=O)N2CCCC(N3CCN(c4ccccc4C)CC3)C2)cn1 (centres unmarked) | 1.27 |
| CCOCCn1c(CN2CCCCC2)nc2c1c(=O)n(C)c(=O)n2C | 14.1 |
| COC(=O)C1C(c2ccccc2)NC(=O)NC1(O)C(F)(F)Cl (centres unmarked) | -7.77 |
| O=C(O)COc1ccccc1/C=N/NC(=O)c1cc(-c2ccc(Cl)cc2)nc2ccccc12 | 6.35 |
| Cc1ccccc1NC(=O)Cn1nnc(-c2ccc(N3CCOCC3)cc2)n1 | 0.44 |
| O=C(O)C1=C[C@H](C2CC2)C[C@H](OCc2ccc(CO)cc2)O1 | 13.8 |
| C=CCn1c(CCC)nc2ccccc21 | 8.63 |
| C=C(Br)Cn1c(CCC)nc2ccccc21 | -2.23 |
| COC(=O)c1c(-c2ccc(C)cc2)csc1NC(=S)NC(=O)c1cc(OC)cc(OC)c1 | 27.1 |
| CC(CN1CCCC(C(N)=O)C1)c1ccccc1 (centres unmarked) | 12.5 |
| COc1ccc(-n2c(N)c(C(=O)NCc3ccco3)c3nc4ccccc4nc32)cc1OC | 16.7 |
| COCCn1nnnc1CN(CCc1ccccc1)Cc1cc2cc(OC)ccc2[nH]c1=O | -47.8 |
| COc1ccc(OC)c(NC(=O)C2CCN(S(=O)(=O)c3ccc4c(c3)OCCO4)CC2)c1 | 5.03 |
| Cc1cccc(NC(=O)CCCN2C(=O)c3cccc4cccc(c34)C2=O)c1 | -3.34 |

| SMILES | hERG current change (%, negative = inhibition) at 10uM [%] |
| --- | --- |
| Cc1nn(-c2ccccc2)c(Cl)c1C(=O)OCC(=O)NCCc1ccccc1 | -32.7 |
| CC(C)CN(C(=O)COc1ccc(Br)cc1C=O)C1CCS(=O)(=O)C1 (centres unmarked) | -25.4 |
| O=C(NC1CCCC1)C(c1ccncc1)N(Cc1ccccc1)C(=O)Cc1cccs1 (centres unmarked) | -14.1 |
| O=C(c1cccs1)[C@@H]1[C@@H]2C(=O)N(Cc3ccc4c(c3)OCO4)C(=O)[C@@H]2C2c3ccccc3C=CN21 (some centres unmarked) | -26.7 |
| O=c1oc2ccccc2c2[nH]ccc12 | 14.5 |
| CC1=CC(C)C2COC(c3ccc[n+](C)c3)C1C2C.[I-] (centres unmarked) | 14.3 |
| CCOC(=O)Cc1nnc(NC(=O)C(CC)Sc2nncn2C)s1 (centres unmarked) | 5.89 |
| CCN(CC(=O)Nc1ccc2c(c1)OCCO2)C(=O)CC(NC(C)=O)c1ccccc1 (centres unmarked) | 18.7 |
| CS(=O)(=O)c1ccc(Cl)c(NC(=O)CCNC(=O)c2ccco2)c1 | 5.42 |
| COc1ccccc1NC(=O)c1cc2ccccc2o/c1=N\O | -4.95 |
| COCCCNC(=O)CN(c1cc(Cl)cc(Cl)c1)S(C)(=O)=O | 3.18 |
| CC1=C(C(=O)N2CCOCC2)C(c2cc(C)ccc2C)NC(=S)N1 (centres unmarked) | 15 |
| COc1ccc(C2N3CC4(C)CN2CC(C)(C3)C4O)cc1 (centres unmarked) | 1.98 |
| O=C(O)c1cc(-c2cccc([N+](=O)[O-])c2)n[nH]1 | -0.826 |
| CC1=CC(C)C(COC(N)=O)(COC(N)=O)C(C)C1 (centres unmarked) | -16.2 |
| O=C(N/N=C/c1c(Cl)cccc1Cl)c1ccccc1F | -0.87 |
| COc1ccc(C(=O)N(C)C2CCN(C)CC2)cc1S(=O)(=O)Nc1cc(Cl)ccc1Cl | -3 |
| CC/C(=N\NC(=O)Cc1ccc(Br)cc1)c1cccs1 | 14.4 |
